Results on 50 molecules are retold here after article PMC6919601, “Identification of Plasmodium dipeptidyl aminopeptidase allosteric inhibitors by high throughput screening” (PLoS ONE, 2019).

Screen size: about 110,000 compounds; about 230 (0.21%) showed an effect of 50% or more. The list shows a part of the results.
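Also: 30 min substrate incubation versus DMSO and 10 µM JCP410 controls.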

Chain of DPAP1 (Q8IIJ9 whole entry, looked up): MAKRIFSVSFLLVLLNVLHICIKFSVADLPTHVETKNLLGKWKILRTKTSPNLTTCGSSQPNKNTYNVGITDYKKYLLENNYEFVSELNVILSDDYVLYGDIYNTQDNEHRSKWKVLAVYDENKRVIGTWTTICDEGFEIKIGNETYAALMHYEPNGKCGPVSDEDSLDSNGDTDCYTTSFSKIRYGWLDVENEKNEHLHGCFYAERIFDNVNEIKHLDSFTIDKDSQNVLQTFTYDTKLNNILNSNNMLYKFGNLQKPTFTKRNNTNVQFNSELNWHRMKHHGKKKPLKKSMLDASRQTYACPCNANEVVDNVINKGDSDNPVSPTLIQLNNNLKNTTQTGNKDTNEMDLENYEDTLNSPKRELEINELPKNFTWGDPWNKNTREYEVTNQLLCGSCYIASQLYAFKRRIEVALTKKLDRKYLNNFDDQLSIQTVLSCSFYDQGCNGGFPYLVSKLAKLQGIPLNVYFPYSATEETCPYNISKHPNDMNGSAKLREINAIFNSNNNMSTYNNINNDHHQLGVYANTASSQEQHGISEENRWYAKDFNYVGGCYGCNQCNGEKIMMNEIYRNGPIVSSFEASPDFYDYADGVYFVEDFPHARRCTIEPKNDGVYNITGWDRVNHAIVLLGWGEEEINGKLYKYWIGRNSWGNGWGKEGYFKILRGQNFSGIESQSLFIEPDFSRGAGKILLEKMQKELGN

This experiment addresses DPAP1 (Plasmodium falciparum, UniProt Q8IIJ9). Description: primary screen, percent inhibition; read by cleavage of a fluorogenic dipeptide substrate; higher = more effect of the substance. Also on record: species or system P. falciparum D10 trophozoite lysates; single well.
On to `N#CC1=C(N)Oc2c(ccc3ccccc23)C1c1ccc2ccccc2c1` (centres unmarked), for which the “% Inhibition @ 10 uM” value was -2.21%.

Consider `CC(C)S(=O)(=O)C1=NSC2=NC(=O)/C(=C\c3ccc(OCC(=O)O)cc3)C(=N)N21`, for which the “% Inhibition @ 10 uM” value was -5.51%.

As to `COc1ccc(N2CCN(CCC3=C(C)CCCC3(C)C)CC2)cc1`, the “% Inhibition @ 10 uM” value is -0.0648%.

On to `COc1ccccc1CCNCc1cccn1-c1nnc(N2CCN(C3CCCCC3)CC2)s1`, for which the “% Inhibition @ 10 uM” value worked out at 1.56%.

Take `Cc1ccc2c(c1)c(/C=C1/C(=N)N3C=CSC3=NC1=O)c(C)n2Cc1ccc(F)cc1`: the “% Inhibition @ 10 uM” value is recorded as -1.82%.

`Cn1c2ccccc2c2cnn(CC(=O)N3CCN(C(=O)c4ccco4)CC3)c(=O)c21`: the “% Inhibition @ 10 uM” value was -5.49%.

For `COc1ccc(S(=O)(=O)N2CC=C(C(=O)NCc3ccccc3OC)CC2)cc1`, the “% Inhibition @ 10 uM” value amounted to 5.09%.

Turning to `CN(C)CC/N=c1/c(-c2ccccc2)c(O)c1=O`, the “% Inhibition @ 10 uM” value was -0.539%.

On to `NC(=O)c1c(NC(=O)c2ccc(OCc3ccccc3)cc2)sc2c1CCC2`, for which the “% Inhibition @ 10 uM” value amounted to 0.755%.

As for `O=C(C1CCN(S(=O)(=O)N2CCC3(CC2)OCCO3)CC1)N1CCc2ccccc2C1`, the “% Inhibition @ 10 uM” value is 2.18%.

On to `Cc1cn(CCC(=O)O)c(=O)[nH]c1=O`, for which the “% Inhibition @ 10 uM” value stood at 0.221%.

Turning to `COc1ccc(-c2cc3ncc(C(C)=O)c(C)n3n2)cc1`, the “% Inhibition @ 10 uM” value stood at 1.52%.

As for `COc1ccc(C(=O)Nc2ccc(-c3csc(C)n3)cc2)cc1`, the “% Inhibition @ 10 uM” value was 5.6%.

In the case of `Cc1ccc(S(=O)(=O)N(CC(=O)N2CCCCCC2)Cc2ccccc2F)cc1`, the “% Inhibition @ 10 uM” value amounted to 3.65%.

As for `CCOC(=O)c1cc(C)n(Cc2ccccc2)c1C`, the “% Inhibition @ 10 uM” value was -5.37%.

Take `C=CCOc1ccc(/C=C2\SC(=O)N(CC(=O)Nc3ccc(C)cc3)C2=O)cc1`: the “% Inhibition @ 10 uM” value is listed as -5.4%.

As for `CC1CCN(C(=O)c2cc3nc(-c4ccco4)cc(C(F)(F)F)n3n2)C(C)C1` (centres unmarked), the “% Inhibition @ 10 uM” value is -3.53%.

As for `OCc1nc2ccccc2n1CCCCOc1ccccc1`, the “% Inhibition @ 10 uM” value is listed as -10.7%.

On to `Cc1cccc(CCNC(=O)CCNC(=O)Cn2ccc3ccccc3c2=O)c1`, for which the “% Inhibition @ 10 uM” value is -0.631%.

On to `Cc1ccc(-c2nc(C#N)c(NCCCN3CCOCC3)o2)cc1`, for which the “% Inhibition @ 10 uM” value is given as -7.04%.

With `CC(=O)Nc1ccc(NC(=O)COc2ccc(C)cc2C)cc1`, the “% Inhibition @ 10 uM” value worked out at 0.795%.

Take `COCCCNC(=O)Cn1cnc2c1c(=O)n(C)c(=O)n2C`: the “% Inhibition @ 10 uM” value is given as -0.564%.

As for `CCCNc1ncnc2c1cnn2-c1cccc(C)c1`, the “% Inhibition @ 10 uM” value was found to be 6.29%.

Take `Cc1ccccc1C(=O)Nc1nc(-c2nnn(-c3ccc(Cl)cc3)c2C)ns1`: the “% Inhibition @ 10 uM” value is on record as -0.858%.

Regarding `c1ccc2sc(SCCCCSc3nc4ccccc4s3)nc2c1`, the “% Inhibition @ 10 uM” value is listed as -3.55%.

For `CCCC(=O)NC(C)c1nc2ccccc2n1Cc1ccc(Cl)cc1` (centres unmarked), the “% Inhibition @ 10 uM” value is 1.12%.

For `CN1CCC(N2CCC(Cc3ccccc3)CC2)CC1`, the “% Inhibition @ 10 uM” value is listed as -1.96%.

`CCCOc1ccc(C(=O)C2=C(O)C(=O)N(CCN3CCOCC3)C2c2ccc(OC)cc2)cc1C` (centres unmarked): the “% Inhibition @ 10 uM” value amounted to 3.15%.

In the case of `COc1ccc(CN2CCN(C3CCCC3)CC2)c(OC)c1`, the “% Inhibition @ 10 uM” value is reported as -2.18%.

For `COc1ccc(Cl)cc1-c1nnc(S)n1-c1ccccc1`, the “% Inhibition @ 10 uM” value is on record as -1.24%.

As for `O=C(c1ccccc1)N1CCN(CC(O)Cn2ccc3ccccc32)CC1` (centres unmarked), the “% Inhibition @ 10 uM” value is -11.5%.

As for `O=C(C1CCCN(Cc2cccnc2)C1)N1CCCCCC1` (centres unmarked), the “% Inhibition @ 10 uM” value came to 5.44%.

`COc1cccc(N(CC(=O)NC2CC3CCC2C3)S(=O)(=O)c2ccc(C)cc2)c1` (centres unmarked): the “% Inhibition @ 10 uM” value was -6.94%.

For `CC(=O)N1CCC2(CC1)CC(=O)c1cc(OCC(=O)NCc3ccco3)ccc1O2`, the “% Inhibition @ 10 uM” value is -0.601%.

As to `Cc1cc(Cl)nc(Cl)c1C(=O)N1CCCCC1`, the “% Inhibition @ 10 uM” value is on record as 1.03%.

For the molecule `Cc1ccc2[nH]c3c(c2c1)CCCC3N` (centres unmarked), the “% Inhibition @ 10 uM” value came to 5%.

As for `Cc1c(NC(=O)Cn2nc(C(F)(F)F)cc2C2CC2)cnn1C`, the “% Inhibition @ 10 uM” value is listed as 0.709%.

As for `O=C(NCc1ccco1)C1(c2ccccc2)CCOCC1`, the “% Inhibition @ 10 uM” value is given as -4.43%.

With `CCOC(=O)C1=CC(=C2C(=O)NC(=O)NC2=O)c2ccccc2O1`, the “% Inhibition @ 10 uM” value was 2.03%.

Consider `Fc1ccc(N2N=C(c3ccc(Cl)cc3)CC2c2cccs2)c(F)c1` (centres unmarked), for which the “% Inhibition @ 10 uM” value is reported as -4.4%.

Turning to `O=C(c1ccc(-c2ccccc2)cc1)N1N=C(C(F)F)CC1(O)C(F)F` (centres unmarked), the “% Inhibition @ 10 uM” value turned out to be 1.34%.

`CCCC[C@H](NC(=O)[C@H](CS(=O)(=O)Cc1ccccc1OC(F)F)NC(=O)N1CCOCC1)C(=O)c1nc2ncccc2o1`: the “% Inhibition @ 10 uM” value was -5.2%.

As to `COc1cc(C2NCCc3c2[nH]c2ccccc32)cc(OC)c1O` (centres unmarked), the “% Inhibition @ 10 uM” value is reported as 4.89%.

As to `CN(C)CCN(C(=O)c1ccccc1Br)c1nc2c(Cl)cccc2s1`, the “% Inhibition @ 10 uM” value is -4.16%.

As for `COCCN1C(=O)c2oc3cc(C)c(C)cc3c(=O)c2C1c1ccc(O)cc1` (centres unmarked), the “% Inhibition @ 10 uM” value was -2.91%.

Regarding `Cc1ccccc1-n1nc2c(c1NC(=O)C(C)C)CS(=O)(=O)C2`, the “% Inhibition @ 10 uM” value is on record as -0.195%.

`CCn1c2ccccc2c2nnc(SCc3ccccc3Cl)nc21`: the “% Inhibition @ 10 uM” value is 2.91%.

In the case of `COc1ccccc1-n1c(C)ccc1C`, the “% Inhibition @ 10 uM” value is reported as -0.183%.

Take `CCN1CCN(c2c(S(=O)(=O)c3ccc(C)c(C)c3)cnc3ccccc23)CC1`: the “% Inhibition @ 10 uM” value was -6.24%.

On to `C=Cc1ccc(Cn2c(C)c(CNCc3ccc(OC)cc3)c(C(=O)O)c2C)cc1`, for which the “% Inhibition @ 10 uM” value is given as 4.53%.
